# Test results as given in paper PMC12040169 (PLOS Biology, 2025).
# The list shows a part of the results.
# Test system: T1, C. trachomatis L2/434/Bu expressing GFP (CTL2-GFP)
# T1 construct: L2/434/Bu GFP intracellular growth in HeLa cells
# Set-up: species or system HeLa; C. trachomatis total inclusion area by high-content imaging, normalised to DMSO
# Details: total inclusion area; 28.5 h, 10 µM; inhibitor
# Method in brief: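 High-content imaging followed the bulk GFP/resorufin measurement: fixed, Hoechst-stained cells were scored for GFP inclusions and host nuclei per well. Total inclusion area and count served as growth proxies, nuclei number as the viability proxy. MIC calculation matched the bulk assay.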
row,Structure (SMILES),% of control remaining
1,COc1ccc([C@@]23CC[C@@H](NC(=O)c4ccc(F)c(F)c4)C[C@@H]2CN(C)C3)cc1OC [CBK083504T],109.963
2,COc1cc(CNC2CCCCC2)ccc1OCC(N)=O [CBK263866],106.424
3,COc1cc(OC)c(NC(=O)C(C)Oc2cccc(C)c2)cc1Cl (stereo not drawn) [CBK268646],86.141
4,Cc1ccc(-c2nnc([C@H]3CCN(C(=O)NCc4ccccc4)C3)o2)cc1 [CBK289411],94.5166
5,COCOc1ccc(-c2nccnc2OC2CCCCC2)cc1 [CBK106917],107.578
6,CCCc1cc(C(=O)N2CCN(c3nccc(OC)n3)CC2)[nH]n1 [CBK304898],18.5877
7,O=c1oc2ccccc2c(NCCCN2CCOCC2)c1[N+](=O)[O-] [CBK261471],91.5627
8,Cc1cc(C)c2nc(-c3ccccn3)cc(C(=O)Nc3ccc(S(=O)(=O)Nc4cc(C)on4)cc3)c2c1 [CBK267779],107.655
9,CC1CN(C(=O)c2ccccc2)CC(C)N1CCCCc1ccc(F)cc1 (stereo not drawn) [CBK025019C],73.3552
10,CN(C)CCCn1cnc2c1c(=O)[nH]c(=O)n2C [CBK287913],83.1557
11,CN(C)Cc1ncccc1OCCO [CBK001411C],102.348
12,CCOC(=O)c1ccccc1NS(=O)(=O)Cc1ccccc1[N+](=O)[O-] [CBK050594],80.5247
13,COc1ccc(-c2nnc3ccc(SCc4ccccn4)nn23)cc1OC [CBK287528],98.4848
14,Cc1nc2c(c(=O)[nH]1)CN(Cc1ccccc1F)CC2 [CBK283948],107.649
15,COc1ccc(CCCC(=O)n2c(=O)n(CCc3c[nH]c4ccccc34)c3ccccc32)cc1 [CBK106514],111.308
16,Nc1ccc(S(=O)(=O)c2ccc(-n3c(=O)c4cc5c(=O)n(-c6ccc(S(=O)(=O)c7ccc(N)cc7)cc6)c(=O)c5cc4c3=O)cc2)cc1 [CBK261490],102.421
17,O=C(c1nc2ncccn2n1)N1CCc2ccccc2C1 [CBK288079],89.5435
18,Cc1ccc(C)c(-n2nnnc2SC(C)C(=O)N2CCCC2)c1 (stereo not drawn) [CBK295204],98.5745
19,Cc1cccc(-c2noc([C@@H]3Cc4[nH]cnc4CN3C(=O)NC(C)C)n2)c1 [CBK288962],109.657
20,CSc1nnc(-c2ccccc2[N+](=O)[O-])n1CC(C)C [CBK074959],94.4165
21,O=C1c2ccccc2S(=O)(=O)N1CC(O)Cn1c2ccc(Cl)cc2c2cc(Cl)ccc21 (stereo not drawn) [CBK262327],95.4112
22,Cc1cccc(CN(CCCN)C(=O)Nc2ccc(C(C)(C)C)cc2)n1 [CBK033365C],49.0721
23,CCOC(=O)c1sc2nc(C)cc(C)c2c1N [CBK097355],120.228
24,O=C(COc1ccc(S(=O)(=O)NC2CCCCC2)cc1)Nc1ccc2c(c1)OCO2 [CBK265960],88.839
25,COc1ccc(CCNC(=O)CN2CCCC2Cn2cccn2)cc1 (stereo not drawn) [CBK306147],78.4663
26,COc1cccc(-c2cncc(C3CCCN(Cc4ccc5[nH]ccc5c4)C3)n2)c1 (stereo not drawn) [CBK286151],112.898

row,Structure (SMILES),% of control remaining
1,COc1cccc(NC(=O)CCS(=O)(=O)c2ccccc2)c1 [CBK270150],104.154
2,O=C(CC1Sc2ccccc2NC1=O)Nc1ccc(C(F)(F)F)cc1 (stereo not drawn) [CBK287585],91.7726
3,COc1ccc(C(=O)NCC(O)CN2CCOCC2)cc1[N+](=O)[O-] (stereo not drawn) [CBK265643],98.3656
4,CCNC(=O)Nc1ccc([C@@H](O)[C@H]2COCC(=O)N2CC)cc1 [CBK289696],102.757
5,CC(c1ccc(Cl)cc1)N(CCN(C)C)c1ccccn1 (stereo not drawn) [CBK012273F],27.3317
6,O=C(NC[C@H]1O[C@@H](CC(=O)N2CCN(c3ccccn3)CC2)[C@H](O)[C@@H]1O)C1CC1 [CBK288904],111.171
7,Nc1cc(=O)[nH]c(=O)n1Cc1ccc(Cl)cc1 [CBK288002],98.4632
8,O=C(Oc1cccc2cccnc12)c1ccc(Br)o1 [CBK019461],99.2699
9,COc1ccc(Cn2nc(NS(=O)(=O)c3ccc(-c4ccon4)s3)c3ccccc32)cc1 [CBK048031],90.6572
10,COc1ccc(-c2cncc(C3CN(Cc4cccc5ncccc45)CCO3)n2)cc1 (stereo not drawn) [CBK285947],115.619
11,Cc1nccn1CC1(O)CCN(C(=O)Cc2cccc(F)c2)CC1 [CBK282184],95.6066
12,Cc1ccc(OCc2cc(-c3ccco3)on2)c([N+](=O)[O-])n1 [CBK233261],112.978
13,O=C(NC(Nc1ncccn1)C(Cl)(Cl)Cl)c1ccccc1 (stereo not drawn) [CBK261408],96.0194
14,O=S(=O)(/N=C(/NS(=O)(=O)c1cccc2ccccc12)c1ccccc1)c1ccccc1 [CBK263105],97.1917
15,COc1ccc(-c2cnc(NS(C)(=O)=O)c(C(=O)NCc3ccco3)c2)cc1 [CBK076539],75.0283
16,c1ccc(-c2nc3cnccn3c2Nc2ccc3c(c2)OCCO3)cc1 [CBK287857],105.176
17,NC1CCN(c2nccnc2OCCOc2cccnc2)CC1 [CBK003889F],96.6991
18,COc1cccc(NC(=O)NCCc2ccncc2)c1 [CBK270022],69.8923
19,CCNC(=O)Nc1ccc(-c2ccc(SC)cc2)c2ccccc12 [CBK083723],98.1486
20,O=C(O)COCC(=O)NC12CC3CC(CC(C3)C1)C2 [CBK287065],78.5986
21,O=C1CCCCCN1CP(=O)(O)CCc1ccccc1 [CBK262313],97.9736
22,CN1CC(=O)N2CCOC(C2)c2cccc(n2)NC(=O)C/C=C/CC2(CCN(c3ncccn3)CC2)C1=O (stereo not drawn) [CBK292188],100.532
23,O=S(=O)(Nc1ccc2nsnc2c1)c1cccc(C(F)(F)F)c1 [CBK062221],99.6189
24,Cn1cc(NC(=O)c2ccc(COc3c(F)c(F)cc(F)c3F)o2)c(C(=O)O)n1 [CBK287014],98.2316
25,Cc1nc(CCNC(=O)C2CCN(C(=O)c3ccc(F)cc3)CC2)cs1 [CBK304378],50.4595
26,CCN1CCOC(CNc2nc(-c3ccncc3)nc3c2CCC3)C1 (stereo not drawn) [CBK306215],70.5436

row,Structure (SMILES),% of control remaining
1,Cc1c(C(=O)NCCCCn2ccnc2)[nH]c2ccccc12 [CBK283246],71.2935
2,Cc1nonc1NC(=O)CN1CCCC1 [CBK261840],103.33
3,Cc1ccc(Cl)c(NC(=O)NCCN2CCN(c3ccccc3[N+](=O)[O-])CC2)c1 [CBK267293],97.9073
4,CC(C)(C)c1cc(C(=O)Nc2ccncc2)n(Cc2ccc(Cl)cc2Cl)n1 [CBK107284],34.7793
5,O=C(NCCN1CCOCC1)c1cc(-c2ccc(Cl)cc2)nc2ccccc12 [CBK262650],100.071
6,COC(=O)c1c(NC(=S)Nc2cn(C)nc2C(N)=O)sc2c1CCCCC2 [CBK266849],117.973
7,CN1CCN(CC(=O)Nc2ccc(Cl)cc2C(=O)c2ccccc2)CC1 [CBK266246],92.7851
8,CS(=O)(=O)NC1CCCN(c2ncnc3ccccc23)C1 (stereo not drawn) [CBK305619],46.564
9,NS(=O)(=O)c1ccc(CNC(=O)c2cc(-c3cccc(Cl)c3)nc3ccccc23)cc1 [CBK267774],100.106
10,CN(Cc1ccccc1)Cc1nc2c([nH]1)c(=O)[nH]c(=O)n2C [CBK269442],80.2089
11,Cc1oc(C(C)(C)C)cc1C(=O)Nc1ccc(C(F)(F)F)cc1 [CBK057251],67.532
12,CNC(=S)N(Cc1ccc(S(N)(=O)=O)cc1)C1CC(=O)N(c2ccc(OC)cc2)C1=O (stereo not drawn) [CBK262940],61.4811
13,O=C(O)c1cccc(S(=O)(=O)Nc2nc3ccccc3s2)c1 [CBK161138],90.9332
14,CC(=O)N1CCCN(Cc2c(C(C)C)[nH]c3ncccc23)CC1 [CBK285333],85.559
15,CC(C)(CNC(=O)Cn1cc(C(=O)Nc2ccc(F)cc2)ccc1=O)c1cccc(F)c1 [CBK286079],128.738
16,CN1CCN(C(=O)c2ccc(-c3ccccc3)nc2N(C)C)CC1 [CBK106115],96.7655
17,CC(C)(C)c1ccc(S(=O)(=O)N2CCCC[C@H]2CCOC(=O)/C=C\C(=O)O)cc1 [CBK200069],94.6775
18,O=[N+]([O-])c1ccc(-c2ccc(/C=C/c3cc(O)c4ccccc4n3)o2)cc1 [CBK267792],99.1453
19,O=C(O)C(CCO)Sc1nnc(Nc2ccc(Oc3ccccc3)cc2)s1 (stereo not drawn) [CBK296631],111.551
20,Cc1ccc(CN(CCCn2ccnc2)Cc2cccnc2)o1 [CBK283100],103.479
21,Cc1cccc(Nc2ccc(C3CCCCN3Cc3ccc4nccnc4c3)cn2)n1 (stereo not drawn) [CBK285536],68.7736
22,CCc1nn(CC(=O)NC2CCCC2)c(=O)c2cc3ccsc3n12 [CBK284134],83.5166
23,CC(C)N(C)C1CCN(S(=O)(=O)c2cccc([N+](=O)[O-])c2)CC1 [CBK294462],81.3695
24,CSCCC(NS(=O)(=O)c1ccc(I)cc1)C(=O)O (stereo not drawn) [CBK268768],111.4
25,CN1CCN(c2ccc(NC(=O)c3cccc(Br)c3)cc2)CC1 [CBK266140],118.479
26,COc1ccccc1-c1nc(C2CCCN2C(=O)N[C@@H](C)c2ccccc2)n2ccccc12 (stereo partly drawn) [CBK046625],76.8148
